Measured values as given in PubChem BioAssay AID493208 (National Center for Advancing Translational Sciences (NCATS), 2011).
About 340 (0.77%) of roughly 44,000 compounds were called active. About 5% were inconclusive and are not listed. Calls follow the shape of the dose curve; as a rule, active = well fitted inhibition curve with a large enough effect; inconclusive = small, poorly fitted or top-dose-only effect; inactive = flat fitted curve, though single readings scatter. This is one part of the list.

Assay: Acumen qHTS Assay for Inhibitors of the mTORC1 Signaling Pathway in MEF (Tsc2-/-, p53-/-) Cells: Sytravon;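 also: plate controls were DMSO for no effect and rapamycin for full effect; nearly all actives have a fitted effect of over 50% in size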
Conditions: phospho-rpS6 immunofluorescence/PI, 24 h; series mostly up to 38.3 µM; activity change, negative = inhibition: at the top concentration
Procedure, shortened: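 Read-out: phospho-S6 Alexa-488 intensity over PI intensity per well, scored as % active cells using thresholds from rapamycin (7.5 nM) and DMSO controls. Tsc2-/-, p53-/- MEFs exposed to compound for 24 h; PI cell count recorded as viability.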

Activity change, negative = inhibition, inactive:
CCCCN(C)CCCNC(=O)C1CCN(S(=O)(=O)CCC)CC1 8.37%
O=C(Nc1ccccc1C(F)(F)F)c1ncoc1-c1ccco1 0%
COc1ccc(-c2cc(C(F)(F)F)nc(SCCC(=O)Nc3ccc(NC(C)=O)cc3)n2)cc1 -11.3%
CCN(CC)c1ccc(CNCCCSc2nnnn2C)cc1 0.771%
COc1ccc(CNC(=O)c2cc(Nc3ccccc3C)nc3ccccc23)cc1 -3.22%
COCCNc1nc2c(c(=O)n(C)c(=O)n2C)n1Cc1c(F)cccc1Cl -1.05%
Cc1oc2ncn(C)c(=O)c2c1C(=O)N1CCN(c2cccc(C(F)(F)F)c2)CC1 -9.35%
COc1ccc(Cl)cc1NC(=O)CSc1cn(CC(=O)N2CCCCC2)c2ccccc12 -15.8%
CCOc1ccc(CN2C(=O)c3ccccc3Sc3ccc(C(=O)NCc4ccco4)cc32)cc1 0.484%
Cc1oc(-c2cccc(Cl)c2)nc1CN1CCC(C(=O)NC(C)c2ccccc2)CC1 (configuration not stated) -0.497%
CCc1ccc(NC(=O)CC2C(=O)NCCN2C(=O)c2ccc(F)cc2)cc1 (configuration not stated) -3.79%
COc1ccc(S(=O)(=O)c2c(Nc3ccccc3F)sc(C(=O)c3cccc(OC)c3)c2N)cc1 -26.7%
CCc1ccc(NC(=O)NCCc2c(C)nn(C)c2C)cc1 0%
COc1cccc(C2CC(=O)Nc3c2ccc(C)c3C)c1OC (configuration not stated) 4.78%
Cc1cccc(NC(=O)CSc2nnc(NC(=O)Nc3ccccc3)s2)c1C 0.24%
CSc1ccc(CNC(=O)Cn2nc(N3CCN(c4ccccc4)CC3)ccc2=O)cc1 -5.93%
Cc1ccccc1CNC(=O)C(=O)NCC(c1ccco1)S(=O)(=O)c1cccs1 (configuration not stated) -0.478%
COc1cccc(NC(=O)CSc2nnc(-c3cccc(OC)c3)o2)c1 -14.8%
O=C(Nc1ccc2nc(SCC(=O)N3CCc4ccccc43)sc2c1)c1ccccc1 -3.75%
Cc1ccc2sc(-c3ccc(N)cc3)nc2c1 -11.4%
CCc1ccc(-n2c(=O)c3sc4ccccc4c3n(CC(=O)N(CC)Cc3ccccc3)c2=O)cc1 -8.79%
CCC(=O)N1CCc2cc(CNC(=O)c3ccccc3C)ccc21 -2.23%
CCCCNC(=O)CSc1nc2nc(C)c(Cc3c(F)cccc3Cl)c(C)n2n1 -9.92%
CCOC(=O)c1c(C)[nH]c(C)c1S(=O)(=O)N1CCCC(C(=O)Nc2cc(C)ccc2C)C1 (configuration not stated) -0.522%
O=C(NC1CC(=O)N(c2cccc(F)c2)C1)c1ccc2c(c1)OCO2 (configuration not stated) 2.15%
Cc1ccc(OCC(=O)Nc2ccccc2C(=O)OCc2cc(=O)n3ccsc3n2)cc1 1.63%
O=C(C1CCC(Cn2c(=O)c3sccc3n(Cc3ccccc3)c2=O)CC1)N1CCOCC1 (configuration not stated) -5.69%
CC(=O)c1ccc(NC(=O)COc2ccccc2-c2nc(-c3ccc(C)cc3)no2)cc1 -13.2%
Cc1ccc(-c2nnc(Nc3ccccc3O)c3ccccc23)cc1 -0.404%
O=C(Nc1cc2c(cc1C(=O)c1ccccc1Br)OCCO2)c1ccccc1 4.02%
Cc1ccc(Cl)cc1N1CCN(C(=O)c2cnn(C)c2C2CCN(C(=O)OC(C)(C)C)CC2)CC1 -1.47%
COc1cc(OC)c(NC(=O)N2CCc3c([nH]c4ccccc34)C2c2ccccc2F)cc1Cl (configuration not stated) -4.93%
O=C(Nc1ccccc1F)c1ccc(Cn2nc(N3CCN(c4ccccc4)CC3)ccc2=O)o1 -2.98%
CCc1cc(C(=O)Nc2c(C)nn(Cc3ccccc3Cl)c2C)no1 -4.13%
Cc1cc(C)c(NC(=O)CN2C(=O)c3cccnc3Sc3ccccc32)c(C)c1 -3.72%
O=C(CCC(=O)N1CC2CCCN2c2ccccc21)NCc1ccc(F)cc1 (configuration not stated) -6.81%
COc1ccc(C(=O)NCC(c2ccc3c(c2)OCO3)N2CCN(C)CC2)cc1 (configuration not stated) -3.23%
CCOc1ccc(CCNC(=O)c2nnc(Cc3ccc(Cl)cc3Cl)o2)cc1OCC 3.44%
COc1cc(OC)c(N(C)C(=O)c2c(C)oc3ncnc(N4CCCCC4)c23)cc1Cl -4.26%
CCn1cc(/C=C(\NC(=O)c2ccc(C)cc2)C(=O)NCCCn2ccnc2)c2ccccc21 -15.1%
CCOC(=O)c1cc2c(=O)n3ccccc3nc2n(CC2CCCO2)c1=NC(=O)c1ccccc1C (configuration not stated) 7.06%
Cc1ccc2c(=O)cc(C(=O)NCc3ccccc3)oc2c1 -16.6%
COc1ccc(CNC(=O)C2CCCN(S(=O)(=O)c3ccc4c(ccn4C)c3)C2)c(OC)c1 (configuration not stated) -7.02%
CCOc1ccc2nc(N3CCN(C(=O)c4ccco4)CC3)sc2c1 1.24%
COc1ccc(NC(C)=O)cc1NC(=O)C1(c2cccs2)CCOCC1 -8.39%
CCc1ccc(-n2nc(CO)c(C(=O)NCCc3ccccc3)n2)cc1 2.85%
O=C(CSc1nc2c([nH]c3ccccc32)c(=O)n1-c1ccc(F)cc1)N1CCc2ccccc21 -9.09%
Cc1ccc(C)c(N2CCN(C(=O)Cc3c(C(=O)O)c(C)cn3C)CC2)c1 2.34%
Cc1cc(C)cc(-n2c(SCC(=O)N3CCC(C)CC3)nc3c([nH]c4ccccc43)c2=O)c1 -21.4%
COc1cccc(C(=O)N2CCCCC2CCN2CCCCC2)c1 (configuration not stated) -4.26%
Cc1oc(-c2ccccc2F)nc1CS(=O)CC(=O)NC(C)C (configuration not stated) -7.64%
COc1ccc(OC)c(NC(=O)c2cccc3c2C(=O)N(C2CCCCC2)C3)c1 2.04%
Cc1cccc(Cn2c(CNS(=O)(=O)c3ccc(C(C)C)cc3)nc3cccnc32)c1 1.06%
COc1ccc(-c2nc3n(n2)C(c2ccccc2OC)C(C(=O)Nc2cccnc2)=C(C)N3)cc1 (configuration not stated) -13.9%
CCOc1ccccc1NC(=O)c1c2c(nc3ccccc13)C(=O)N(C1CCCCC1)C2 0%
CCOc1ccc(C(=O)Nc2ccc3oc(-c4ccc(C)cc4C)nc3c2)cc1Br 2.87%
CCOc1ccc(NC(=O)Cn2c(=O)n(CCCCC(=O)NCCc3ccc(Cl)cc3)c(=O)c3ccccc32)cc1 -10.4%
O=C(Nc1cccc(Cl)c1)N1CC2CCCN2c2ccccc21 (configuration not stated) -15.4%
O=C(C1CCC(CNS(=O)(=O)c2ccc(Br)s2)CC1)N1CCN(c2ccc(F)cc2)CC1 (configuration not stated) -16.3%
CCc1ccccc1NC(=O)CC1NCCNC1=O (configuration not stated) -3.3%
Cc1ccc(NS(=O)(=O)c2ccc3c(c2)N(C)C(=O)CC(=O)N3C)cc1Cl 2.18%
Cc1ccc(-n2c(=O)c3ccc(C(=O)NCc4ccco4)cc3n(CC(=O)Nc3ccc(C)c(F)c3)c2=O)cc1 -5.54%
